According to PubChem BioAssay AID1745853 (National Center for Advancing Translational Sciences (NCATS), 2022):
Values joined by “and” are separate entries in the source; they are usually repeats but may differ in a detail not shown here. Identical values can stand only once. Some of the results follow. Further columns of the screen follow, without active or inactive calls.

Experiments:
Assay in all cases: Primary Screen for Target Class Profiling of Small Molecule Inhibitors of Methyltransferases
[1] = target: Glycine N-methyltransferase (Homo sapiens) (UniProt Q14749); settings: purified enzyme, MTase-Glo SAH luminescence; measured here: GNMT inhibition; at 40 µM; stronger effect = lower value
How it was run: (§1)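 Each enzyme was reacted with SAM and its substrate, with compounds tested once at 40 uM; SAH formed was read by MTase-Glo luminescence.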

[2] = target: Guanidinoacetate N-methyltransferase (Homo sapiens) (UniProt Q14353); settings: purified enzyme, MTase-Glo SAH luminescence; measured here: GAMT inhibition; at 40 µM; stronger effect = lower value
How it was run: as §1

[3] = target: Histamine N-methyltransferase (Homo sapiens) (UniProt P50135); settings: purified enzyme, MTase-Glo SAH luminescence; measured here: HNMT inhibition; at 40 µM; stronger effect = lower value
How it was run: as §1

[4] = target: Nicotinamide N-methyltransferase (Homo sapiens) (UniProt P40261); settings: purified enzyme, MTase-Glo SAH luminescence; measured here: NNMT inhibition; at 40 µM; stronger effect = lower value
How it was run: as §1

[5] = target: Phenylethanolamine N-methyltransferase (Homo sapiens) (UniProt P11086); settings: purified enzyme, MTase-Glo SAH luminescence; measured here: PNMT inhibition; at 40 µM; stronger effect = lower value
How it was run: as §1
% is scaled to controls: 0 for no effect and ±100 for the full control effect.

## CC(C)CNC(=O)c1ccc2c(=O)n(C(C)C)c3nn(CC(=O)NC(C)(C)C)c(=O)n3c2c1
[1]
  activity change, negative = inhibition: 6.47%
[2]
  activity change, negative = inhibition: 1.25%
[3]
  activity change, negative = inhibition: 11.4%
[4]
  activity change, negative = inhibition: 2.64%
[5]
  activity change, negative = inhibition: 7.29%

## CC1(C(=O)NC2CCCCCC2)Cn2c(cc3sccc32)C(=O)N1Cc1ccccc1 (stereo not given)
[1]
  activity change, negative = inhibition: 5.82%
[2]
  activity change, negative = inhibition: 0.709%
[3]
  activity change, negative = inhibition: 7.41%
[4]
  activity change, negative = inhibition: -1.93%
[5]
  activity change, negative = inhibition: 3.79%

## CCOCCCNC(=O)Cn1ccc2cc(S(=O)(=O)N3CCCCC3)ccc21
[1]
  activity change, negative = inhibition: 5.46%
[2]
  activity change, negative = inhibition: 0%
[3]
  activity change, negative = inhibition: 0.94%
[4]
  activity change, negative = inhibition: 4.31%
[5]
  activity change, negative = inhibition: 1.27%

## CNS(=O)(=O)CCc1ccc2[nH]cc(C3CCN(C)CC3)c2c1
[1]
  activity change, negative = inhibition: -3.56% and 3.06%
[2]
  activity change, negative = inhibition: 4.57% and 7.73%
[3]
  activity change, negative = inhibition: -19.6% and -9.73%
[4]
  activity change, negative = inhibition: -4.09% and -4.41%
[5]
  activity change, negative = inhibition: 8.45% and 7.33%

## Cc1nc2ccccc2n1CCNS(=O)(=O)c1cccc(Cl)c1
[1]
  activity change, negative = inhibition: -4.99%
[2]
  activity change, negative = inhibition: 1.06%
[3]
  activity change, negative = inhibition: -3.73%
[4]
  activity change, negative = inhibition: -7.92%
[5]
  activity change, negative = inhibition: -1.63%

## CC(C)(C)NC(=O)N1CCCC(c2nc(CCOCC3CC3)no2)C1 (stereo not given)
[1]
  activity change, negative = inhibition: -4.22%
[2]
  activity change, negative = inhibition: -2.24%
[3]
  activity change, negative = inhibition: 0.073%
[4]
  activity change, negative = inhibition: -1.85%
[5]
  activity change, negative = inhibition: 1.93%

## CCCCNC(=O)[C@@H]1Cc2ccccc2N1C(=O)[C@@H](N)CC
[1]
  activity change, negative = inhibition: -1.74%
[2]
  activity change, negative = inhibition: -0.149%
[3]
  activity change, negative = inhibition: 4.14%
[4]
  activity change, negative = inhibition: -12.2%
[5]
  activity change, negative = inhibition: 2.57%

## O=C(c1nc(-c2ccc(Cl)cc2Cl)c2cnccn12)N1CCOCC1
[1]
  activity change, negative = inhibition: -7.67%
[2]
  activity change, negative = inhibition: -6.08%
[3]
  activity change, negative = inhibition: -4.4%
[4]
  activity change, negative = inhibition: -18.8%
[5]
  activity change, negative = inhibition: -8.19%

## C=CCNC(=O)c1cc2n(n1)CC(C)(C(=O)NCc1ccccc1)N(C)C2=O (stereo not given)
[1]
  activity change, negative = inhibition: -5.02%
[2]
  activity change, negative = inhibition: 0.91%
[3]
  activity change, negative = inhibition: -2.13%
[4]
  activity change, negative = inhibition: -5.63%
[5]
  activity change, negative = inhibition: -3.1%

## C=CC(C)(O)CO[C@@H]1O[C@H](CO)[C@@H](O)[C@H](O)[C@H]1O (stereo not given in full)
[1]
  activity change, negative = inhibition: 0.242%
[2]
  activity change, negative = inhibition: -1.07%
[3]
  activity change, negative = inhibition: 9.12%
[4]
  activity change, negative = inhibition: -13%
[5]
  activity change, negative = inhibition: -4.94%

## COC(=O)COc1ccc(CC2C(=O)NCCc3ccccc3OCC(=O)N2C)cc1 (stereo not given)
[1]
  activity change, negative = inhibition: -1.59%
[2]
  activity change, negative = inhibition: -1.62%
[3]
  activity change, negative = inhibition: 0.671%
[4]
  activity change, negative = inhibition: -7.2%
[5]
  activity change, negative = inhibition: -10.5%

## O=C(Cn1c(=O)oc2cc(S(=O)(=O)N3CCCC3)ccc21)Nc1ccccc1F
[1]
  activity change, negative = inhibition: 0.527%
[2]
  activity change, negative = inhibition: 2.64%
[3]
  activity change, negative = inhibition: 3.43%
[4]
  activity change, negative = inhibition: 1.48%
[5]
  activity change, negative = inhibition: -4.17%

## Cc1ccccc1CN1C(=O)c2cc(-c3ccccc3)nn2CC1(C)C(=O)NCc1ccccc1 (stereo not given)
[1]
  activity change, negative = inhibition: 2.11%
[2]
  activity change, negative = inhibition: 4.47%
[3]
  activity change, negative = inhibition: 1.35%
[4]
  activity change, negative = inhibition: -2.99%
[5]
  activity change, negative = inhibition: -4.97%

## CC(O)C(O)[C@H]1CNc2nc(N)[nH]c(=O)c2N1 (stereo not given in full)
[1]
  activity change, negative = inhibition: -31.6%
[2]
  activity change, negative = inhibition: 7.98%
[3]
  activity change, negative = inhibition: 3.51%
[4]
  activity change, negative = inhibition: -1.77%
[5]
  activity change, negative = inhibition: 11.1%

## Nc1nc(NC2CC2)cc(-c2cccc(Cl)c2Cl)n1
[1]
  activity change, negative = inhibition: -4.35%
[2]
  activity change, negative = inhibition: 7.52%
[3]
  activity change, negative = inhibition: -3.55%
[4]
  activity change, negative = inhibition: -60.6%
[5]
  activity change, negative = inhibition: -8.23%

## Cc1ccc(NC(=O)CSc2nnc3n(CC(C)C)c(=O)c4cc(F)ccc4n23)c(Cl)c1
[1]
  activity change, negative = inhibition: -5.81%
[2]
  activity change, negative = inhibition: 2.51%
[3]
  activity change, negative = inhibition: 3.71%
[4]
  activity change, negative = inhibition: -14.5%
[5]
  activity change, negative = inhibition: -1.33%

## N#C/C(=C1\Nc2ccccc2S1)c1ccnc(NCCc2cccnc2)n1
[1]
  activity change, negative = inhibition: -73.3%
[2]
  activity change, negative = inhibition: 3.83%
[3]
  activity change, negative = inhibition: -38.6%
[4]
  activity change, negative = inhibition: -45.3%
[5]
  activity change, negative = inhibition: -20%

## CC(C)S(=O)(=O)NC[C@H](C)c1ccc(NC(=O)c2cc(F)cc(F)c2)cc1
[1]
  activity change, negative = inhibition: 5.95%
[2]
  activity change, negative = inhibition: 4.75%
[3]
  activity change, negative = inhibition: 10%
[4]
  activity change, negative = inhibition: -7.22%
[5]
  activity change, negative = inhibition: 0.916%

## CCCn1cc(C(=O)N2CC(=O)N(c3cccc(C)c3)CC2C)c(C)n1 (stereo not given)
[1]
  activity change, negative = inhibition: -5.16%
[2]
  activity change, negative = inhibition: -8.24%
[3]
  activity change, negative = inhibition: -11.5%
[4]
  activity change, negative = inhibition: -12.5%
[5]
  activity change, negative = inhibition: 7.93%

## Cc1ccccc1N1C(=O)CSc2c(c3ccccc3n2C)C1C(=O)NCc1ccccc1 (stereo not given)
[1]
  activity change, negative = inhibition: 0.692%
[2]
  activity change, negative = inhibition: 4.88%
[3]
  activity change, negative = inhibition: -1.31%
[4]
  activity change, negative = inhibition: -2.99%
[5]
  activity change, negative = inhibition: -1.32%

## COc1cccc(CSc2nnc3n(CC(C)C)c(=O)c4ccc(C(=O)NC(C)C)cc4n23)c1
[1]
  activity change, negative = inhibition: 2.94%
[2]
  activity change, negative = inhibition: 3.8%
[3]
  activity change, negative = inhibition: 5.3%
[4]
  activity change, negative = inhibition: -0.227%
[5]
  activity change, negative = inhibition: -0.265%

## Cc1ccc(C2NC(C(=O)O)Cc3c2[nH]c2ccccc32)cc1 (stereo not given)
[1]
  activity change, negative = inhibition: -7.53%
[2]
  activity change, negative = inhibition: 1.95%
[3]
  activity change, negative = inhibition: 0.319%
[4]
  activity change, negative = inhibition: -1.66%
[5]
  activity change, negative = inhibition: -3.7%

## C=CCOc1ccc(-c2nnc(CCC(=O)NCCOc3ccccc3)c(=O)[nH]2)cc1
[1]
  activity change, negative = inhibition: -9.42%
[2]
  activity change, negative = inhibition: -12.8%
[3]
  activity change, negative = inhibition: -9.58%
[4]
  activity change, negative = inhibition: -7.7%
[5]
  activity change, negative = inhibition: -11.6%

## CCOc1ccc(N2C(=O)Cn3cccc3C2C(=O)NC2CCCC(C)C2C)cc1 (stereo not given)
[1]
  activity change, negative = inhibition: 6.82%
[2]
  activity change, negative = inhibition: 0.782%
[3]
  activity change, negative = inhibition: 6.61%
[4]
  activity change, negative = inhibition: 2.57%
[5]
  activity change, negative = inhibition: 1.84%

## CN1C(=O)c2cc(C(=O)NCCCc3ccccc3)nn2CC1(C)C(=O)NC1CCCC1 (stereo not given)
[1]
  activity change, negative = inhibition: 6.13%
[2]
  activity change, negative = inhibition: 0.441%
[3]
  activity change, negative = inhibition: 1.24%
[4]
  activity change, negative = inhibition: 6.13%
[5]
  activity change, negative = inhibition: 4.53%

## O=C(c1ccc2c(=O)nc3c(-c4ccccc4F)n[nH]n3c2c1)N1CCN(C2CCCCC2)CC1
[1]
  activity change, negative = inhibition: -5.73%
[2]
  activity change, negative = inhibition: 2.72%
[3]
  activity change, negative = inhibition: -10.9%
[4]
  activity change, negative = inhibition: 4.51%
[5]
  activity change, negative = inhibition: 3.45%

## CCOc1ccccc1CN1C[C@@H](CO)[C@H](NC(=O)c2cccnc2)C1
[1]
  activity change, negative = inhibition: -0.544%
[2]
  activity change, negative = inhibition: 0.303%
[3]
  activity change, negative = inhibition: -8.21%
[4]
  activity change, negative = inhibition: 11.7%
[5]
  activity change, negative = inhibition: 1.62%

## COc1cccc(S(=O)(=O)N2CC3CN(C)CC(C2)O3)c1
[1]
  activity change, negative = inhibition: 6%
[2]
  activity change, negative = inhibition: 0%
[3]
  activity change, negative = inhibition: 13.7%
[4]
  activity change, negative = inhibition: 1.29%
[5]
  activity change, negative = inhibition: 7.89%

## CN1C(=O)c2cc3ccccc3n2CC1(C)C(=O)NCC(=O)NCc1ccccc1 (stereo not given)
[1]
  activity change, negative = inhibition: -1.28%
[2]
  activity change, negative = inhibition: 4.14%
[3]
  activity change, negative = inhibition: 0.322%
[4]
  activity change, negative = inhibition: 7.08%
[5]
  activity change, negative = inhibition: -3.96%

## O=C(Nc1ccccc1)N1Cc2c(sc3c2CCCC3)-n2cccc2C1c1ccc(Cl)cc1 (stereo not given)
[1]
  activity change, negative = inhibition: 4.17%
[2]
  activity change, negative = inhibition: 0%
[3]
  activity change, negative = inhibition: 3.61%
[4]
  activity change, negative = inhibition: 3.81%
[5]
  activity change, negative = inhibition: 7.75%

## COCCS(=O)(=O)c1ncc(CN(C)C(C)c2ccon2)n1Cc1ccccc1 (stereo not given)
[1]
  activity change, negative = inhibition: 1.07%
[2]
  activity change, negative = inhibition: 3.61%
[3]
  activity change, negative = inhibition: 2.63%
[4]
  activity change, negative = inhibition: -1.91%
[5]
  activity change, negative = inhibition: -1.41%

## COc1cc2c(cc1OC)N1C(=O)C[C@@]34C=CC[N@+]5([O-])CC[C@H]2[C@H](CC3)[C@@]145
[1]
  activity change, negative = inhibition: 0.653%
[2]
  activity change, negative = inhibition: -0.102%
[3]
  activity change, negative = inhibition: 7.53%
[4]
  activity change, negative = inhibition: -14.8%
[5]
  activity change, negative = inhibition: 5.48%
